From the CheMixHub ionic liquid set
± gives the uncertainty stated by the source. Further values from the same series stand in other lists.

Experiment: xn = mol fraction of the nth substance listed
Settings: 101 kPa

CC[N+](C)(CC)CCOC.F[B-](F)(F)F + O=C1CCCO1
Settings	electrical conductivity, x1 = 0.7999 [S/m]	electrical conductivity, x1 = 0.9008 [S/m]	electrical conductivity, x1 = 1 [S/m]	viscosity, x1 = 0.7999 [mPa·s]	viscosity, x1 = 0.9008 [mPa·s]	viscosity, x1 = 1 [mPa·s]
288.15 K	–	0.132 ± 0.01	0.094 ± 0.01	–	248 ± 13	288 ± 17
293.15 K	–	0.184 ± 0.01	0.136 ± 0.01	–	189.5 ± 8.6	228 ± 12
298.15 K	0.302 ± 0.01	0.251 ± 0.01	0.189 ± 0.01	116.5 ± 3.8	144.1 ± 5.5	178.6 ± 7.9
303.15 K	0.395 ± 0.01	0.336 ± 0.01	0.259 ± 0.01	86.3 ± 2.3	109.8 ± 3.5	140.4 ± 5.3
308.15 K	0.504 ± 0.01	0.421 ± 0.01	0.347 ± 0.01	63.7 ± 1.4	84.1 ± 2.2	111.4 ± 3.5
313.15 K	0.628 ± 0.01	0.537 ± 0.01	0.449 ± 0.01	48 ± 1	65.2 ± 1.4	89.3 ± 2.4
318.15 K	0.772 ± 0.01	0.67 ± 0.01	0.568 ± 0.01	36.14 ± 0.77	49.8 ± 1.1	70.5 ± 1.6
323.15 K	0.919 ± 0.01	0.811 ± 0.01	0.711 ± 0.01	27.6 ± 0.59	39.07 ± 0.83	57.5 ± 1.2
328.15 K	1.08 ± 0.011	0.964 ± 0.01	0.868 ± 0.01	20.88 ± 0.44	29.96 ± 0.64	46.04 ± 0.98
333.15 K	1.26 ± 0.013	1.16 ± 0.012	1.05 ± 0.011	16.65 ± 0.35	23.35 ± 0.5	37.06 ± 0.79
338.15 K	1.46 ± 0.015	1.36 ± 0.014	1.25 ± 0.013	12.19 ± 0.26	17.8 ± 0.38	30.41 ± 0.65
343.15 K	1.69 ± 0.017	1.58 ± 0.016	1.48 ± 0.015	8.99 ± 0.19	13.6 ± 0.29	25.21 ± 0.54
348.15 K	1.93 ± 0.019	1.835 ± 0.018	1.732 ± 0.017	7.96 ± 0.17	10.95 ± 0.23	20.95 ± 0.45
353.15 K	2.19 ± 0.022	2.09 ± 0.021	1.99 ± 0.02	6.07 ± 0.13	8.16 ± 0.17	17.24 ± 0.37
